Data as given in article PMC7261414, “A complex comprising C15ORF41 and Codanin-1: the products of two genes mutated in congenital dyserythropoietic anaemia type I (CDA-I)” (Biochemical Journal, 2020).
These are yes or no findings as the source states them, for the method shown. In cells and extracts the contact can be indirect. Some binding calls cover weakened binding; strength is not graded here. Sequences can lack the tags named with a protein.

T1: GFP-C15ORF41 (full-length; aa1-281) from the bicistronic plasmids (human) (UniProt Q9Y2V0)
T1 sequence: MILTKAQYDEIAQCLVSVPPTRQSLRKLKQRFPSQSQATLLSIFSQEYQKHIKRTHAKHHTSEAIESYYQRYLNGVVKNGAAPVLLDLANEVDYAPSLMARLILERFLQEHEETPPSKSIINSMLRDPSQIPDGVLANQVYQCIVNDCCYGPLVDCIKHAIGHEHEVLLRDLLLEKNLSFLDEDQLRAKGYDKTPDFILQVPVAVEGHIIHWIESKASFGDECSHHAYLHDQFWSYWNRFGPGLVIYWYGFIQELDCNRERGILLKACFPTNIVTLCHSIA


Target: T1, GFP-C15ORF41 (full-length; aa1-281) from the bicistronic plasmids (human)
Assay: co-IP; U2OS cells transiently transfected with bicistronic vectors co-expressing GFP-C15ORF41 and full-length or truncated RFP-Codanin-1; GFP-Trap beads; two-colour western blotting

binding	Binder
binds	RFP-Codanin-1 G600-S1227 (bicistronic plasmid) (domain or fragment, UniProt Q8IWY9 600-1227) GLALPQHEPNDEDGESDVDWQGERKQFAVVLLSLRLLAKFLGFVAFLPYRGPEPPPTGELQDSILALRSQVPPVLDVRTLLQRGLQARRAVLTVPWLVEFLSFADHVVPLLEYYRDIFTLLLRLHRSLVLSQESEGKMCFLNKLLLLAVLGWLFQIPTVPEDLFFLEEGPSYAFEVDTVAPEHGLDNAPVVDQQLLYTCCPYIGELRKLLASWVSGSSGRSGGFMRKITPTTTTSLGAQPSQTSQGLQAQLAQAFFHNQPPSLRRTVEFVAERIGSNCVKHIKATLVADLVRQAESLLQEQLVTQGEEGGDPAQLLEILCSQLCPHGAQALALGREFCQRKSPGAVRALLPEETPAAVLSSAENIAVGLATEKACAWLSANITALIRREVKAAVSRTLRAQGPEPAARGERRGCSRACEHHAPLPSHLISEIKDVLSLAVGPRDPDEGVSPEHLEQLLGQLGQTLRCRQFLCPPAEQHLAKCSVELASLLVADQIPILGPPAQYRLERGQARRLLHMLLSLWKEDFQGPVPLQLLLSPRNVGLLADTRPREWDLLLFLLRELVEKGLMGRMEIEACLGSLHQAQWPGDFAEELATLSNLFLAEPHLPEPQLRACELVQPNRGTVLAQS
no binding	RFP-Codanin-1 M1-T200 (bicistronic plasmid) (domain or fragment, UniProt Q8IWY9 1-200) MAAVLESLLREEVSVAAVVRWIARSTQGSEDNAGEAAALSSLRALRKEFVPFLLNFLREQSSRVLPQGPPTPAKTPGASAALPGRPGGPPRGSRGARSQLFPPTEAQSTAAEAPLARRGGRRRGPGPARERGGRGLEEGVSGESLPGAGGRRLRGSGSPSRPSLTLSDPPNLSNLEEFPPVGSVPPGPTGTKPSRRINPT
binds	RFP-Codanin-1 P800-S1227 (bicistronic plasmid) (domain or fragment, UniProt Q8IWY9 800-1227) PYIGELRKLLASWVSGSSGRSGGFMRKITPTTTTSLGAQPSQTSQGLQAQLAQAFFHNQPPSLRRTVEFVAERIGSNCVKHIKATLVADLVRQAESLLQEQLVTQGEEGGDPAQLLEILCSQLCPHGAQALALGREFCQRKSPGAVRALLPEETPAAVLSSAENIAVGLATEKACAWLSANITALIRREVKAAVSRTLRAQGPEPAARGERRGCSRACEHHAPLPSHLISEIKDVLSLAVGPRDPDEGVSPEHLEQLLGQLGQTLRCRQFLCPPAEQHLAKCSVELASLLVADQIPILGPPAQYRLERGQARRLLHMLLSLWKEDFQGPVPLQLLLSPRNVGLLADTRPREWDLLLFLLRELVEKGLMGRMEIEACLGSLHQAQWPGDFAEELATLSNLFLAEPHLPEPQLRACELVQPNRGTVLAQS
binds	RFP-Codanin-1 Q1000-S1227 (bicistronic plasmid), the C-terminal 227 residues of Codanin-1 (domain or fragment, UniProt Q8IWY9 1000-1227) QGPEPAARGERRGCSRACEHHAPLPSHLISEIKDVLSLAVGPRDPDEGVSPEHLEQLLGQLGQTLRCRQFLCPPAEQHLAKCSVELASLLVADQIPILGPPAQYRLERGQARRLLHMLLSLWKEDFQGPVPLQLLLSPRNVGLLADTRPREWDLLLFLLRELVEKGLMGRMEIEACLGSLHQAQWPGDFAEELATLSNLFLAEPHLPEPQLRACELVQPNRGTVLAQS
no binding	RFP-Codanin-1 M1-G600 (bicistronic plasmid) (domain or fragment, UniProt Q8IWY9 1-600) MAAVLESLLREEVSVAAVVRWIARSTQGSEDNAGEAAALSSLRALRKEFVPFLLNFLREQSSRVLPQGPPTPAKTPGASAALPGRPGGPPRGSRGARSQLFPPTEAQSTAAEAPLARRGGRRRGPGPARERGGRGLEEGVSGESLPGAGGRRLRGSGSPSRPSLTLSDPPNLSNLEEFPPVGSVPPGPTGTKPSRRINPTPVSEERSLSKPKTCFTSPPISCVPSSQPSALDTSPWGLGLPPGCRSLQEEREMLRKERSKQLQQSPTPTCPTPELGSPLPSRTGSLTDEPADPARVSSRQRLELVALVYSSCIAENLVPNLFLELFFVFQLLTARRMVTAKDSDPELSPAVLDSLESPLFQSIHDCVFFAVQVLECHFQVLSNLDKGTLKLLAENERLLCFSPALQGRLRAAYEGSVAKVSLVMPPSTQAVSFQPETDNRANFSSDRAFHTFKKQRDVFYEVLREWEDHHEEPGWDFEKGLGSRIRAMMGQLSAACSHSHFVRLFQKQLLQMCQSPGGAGGTVLGEAPDVLSMLGADKLGRLWRLQERLMAPQSSGGPCPPPTFPGCQGFFRDFILSASSFQFNQHLMDSLSLKIQELNG
no binding	RFP-Codanin-1 M1-C400 (bicistronic plasmid) (domain or fragment, UniProt Q8IWY9 1-400) MAAVLESLLREEVSVAAVVRWIARSTQGSEDNAGEAAALSSLRALRKEFVPFLLNFLREQSSRVLPQGPPTPAKTPGASAALPGRPGGPPRGSRGARSQLFPPTEAQSTAAEAPLARRGGRRRGPGPARERGGRGLEEGVSGESLPGAGGRRLRGSGSPSRPSLTLSDPPNLSNLEEFPPVGSVPPGPTGTKPSRRINPTPVSEERSLSKPKTCFTSPPISCVPSSQPSALDTSPWGLGLPPGCRSLQEEREMLRKERSKQLQQSPTPTCPTPELGSPLPSRTGSLTDEPADPARVSSRQRLELVALVYSSCIAENLVPNLFLELFFVFQLLTARRMVTAKDSDPELSPAVLDSLESPLFQSIHDCVFFAVQVLECHFQVLSNLDKGTLKLLAENERLLC
binds	RFP-Codanin-1 T200-S1227 (bicistronic plasmid) (domain or fragment, UniProt Q8IWY9 200-1227) TPVSEERSLSKPKTCFTSPPISCVPSSQPSALDTSPWGLGLPPGCRSLQEEREMLRKERSKQLQQSPTPTCPTPELGSPLPSRTGSLTDEPADPARVSSRQRLELVALVYSSCIAENLVPNLFLELFFVFQLLTARRMVTAKDSDPELSPAVLDSLESPLFQSIHDCVFFAVQVLECHFQVLSNLDKGTLKLLAENERLLCFSPALQGRLRAAYEGSVAKVSLVMPPSTQAVSFQPETDNRANFSSDRAFHTFKKQRDVFYEVLREWEDHHEEPGWDFEKGLGSRIRAMMGQLSAACSHSHFVRLFQKQLLQMCQSPGGAGGTVLGEAPDVLSMLGADKLGRLWRLQERLMAPQSSGGPCPPPTFPGCQGFFRDFILSASSFQFNQHLMDSLSLKIQELNGLALPQHEPNDEDGESDVDWQGERKQFAVVLLSLRLLAKFLGFVAFLPYRGPEPPPTGELQDSILALRSQVPPVLDVRTLLQRGLQARRAVLTVPWLVEFLSFADHVVPLLEYYRDIFTLLLRLHRSLVLSQESEGKMCFLNKLLLLAVLGWLFQIPTVPEDLFFLEEGPSYAFEVDTVAPEHGLDNAPVVDQQLLYTCCPYIGELRKLLASWVSGSSGRSGGFMRKITPTTTTSLGAQPSQTSQGLQAQLAQAFFHNQPPSLRRTVEFVAERIGSNCVKHIKATLVADLVRQAESLLQEQLVTQGEEGGDPAQLLEILCSQLCPHGAQALALGREFCQRKSPGAVRALLPEETPAAVLSSAENIAVGLATEKACAWLSANITALIRREVKAAVSRTLRAQGPEPAARGERRGCSRACEHHAPLPSHLISEIKDVLSLAVGPRDPDEGVSPEHLEQLLGQLGQTLRCRQFLCPPAEQHLAKCSVELASLLVADQIPILGPPAQYRLERGQARRLLHMLLSLWKEDFQGPVPLQLLLSPRNVGLLADTRPREWDLLLFLLRELVEKGLMGRMEIEACLGSLHQAQWPGDFAEELATLSNLFLAEPHLPEPQLRACELVQPNRGTVLAQS
binds	RFP-Codanin-1 C400-S1227 (bicistronic plasmid) (domain or fragment, UniProt Q8IWY9 400-1227) CFSPALQGRLRAAYEGSVAKVSLVMPPSTQAVSFQPETDNRANFSSDRAFHTFKKQRDVFYEVLREWEDHHEEPGWDFEKGLGSRIRAMMGQLSAACSHSHFVRLFQKQLLQMCQSPGGAGGTVLGEAPDVLSMLGADKLGRLWRLQERLMAPQSSGGPCPPPTFPGCQGFFRDFILSASSFQFNQHLMDSLSLKIQELNGLALPQHEPNDEDGESDVDWQGERKQFAVVLLSLRLLAKFLGFVAFLPYRGPEPPPTGELQDSILALRSQVPPVLDVRTLLQRGLQARRAVLTVPWLVEFLSFADHVVPLLEYYRDIFTLLLRLHRSLVLSQESEGKMCFLNKLLLLAVLGWLFQIPTVPEDLFFLEEGPSYAFEVDTVAPEHGLDNAPVVDQQLLYTCCPYIGELRKLLASWVSGSSGRSGGFMRKITPTTTTSLGAQPSQTSQGLQAQLAQAFFHNQPPSLRRTVEFVAERIGSNCVKHIKATLVADLVRQAESLLQEQLVTQGEEGGDPAQLLEILCSQLCPHGAQALALGREFCQRKSPGAVRALLPEETPAAVLSSAENIAVGLATEKACAWLSANITALIRREVKAAVSRTLRAQGPEPAARGERRGCSRACEHHAPLPSHLISEIKDVLSLAVGPRDPDEGVSPEHLEQLLGQLGQTLRCRQFLCPPAEQHLAKCSVELASLLVADQIPILGPPAQYRLERGQARRLLHMLLSLWKEDFQGPVPLQLLLSPRNVGLLADTRPREWDLLLFLLRELVEKGLMGRMEIEACLGSLHQAQWPGDFAEELATLSNLFLAEPHLPEPQLRACELVQPNRGTVLAQS
no binding	RFP-Codanin-1 M1-P800 (bicistronic plasmid) (domain or fragment, UniProt Q8IWY9 1-800) MAAVLESLLREEVSVAAVVRWIARSTQGSEDNAGEAAALSSLRALRKEFVPFLLNFLREQSSRVLPQGPPTPAKTPGASAALPGRPGGPPRGSRGARSQLFPPTEAQSTAAEAPLARRGGRRRGPGPARERGGRGLEEGVSGESLPGAGGRRLRGSGSPSRPSLTLSDPPNLSNLEEFPPVGSVPPGPTGTKPSRRINPTPVSEERSLSKPKTCFTSPPISCVPSSQPSALDTSPWGLGLPPGCRSLQEEREMLRKERSKQLQQSPTPTCPTPELGSPLPSRTGSLTDEPADPARVSSRQRLELVALVYSSCIAENLVPNLFLELFFVFQLLTARRMVTAKDSDPELSPAVLDSLESPLFQSIHDCVFFAVQVLECHFQVLSNLDKGTLKLLAENERLLCFSPALQGRLRAAYEGSVAKVSLVMPPSTQAVSFQPETDNRANFSSDRAFHTFKKQRDVFYEVLREWEDHHEEPGWDFEKGLGSRIRAMMGQLSAACSHSHFVRLFQKQLLQMCQSPGGAGGTVLGEAPDVLSMLGADKLGRLWRLQERLMAPQSSGGPCPPPTFPGCQGFFRDFILSASSFQFNQHLMDSLSLKIQELNGLALPQHEPNDEDGESDVDWQGERKQFAVVLLSLRLLAKFLGFVAFLPYRGPEPPPTGELQDSILALRSQVPPVLDVRTLLQRGLQARRAVLTVPWLVEFLSFADHVVPLLEYYRDIFTLLLRLHRSLVLSQESEGKMCFLNKLLLLAVLGWLFQIPTVPEDLFFLEEGPSYAFEVDTVAPEHGLDNAPVVDQQLLYTCCP
